The whole screen tested about 310,000 compounds, of which about 2,200 (0.71%) showed an effect of 50% or more. The effect is printed as a negative number. This is one part of the list. *1 amine or outer side, *2 acyl side, *3 side chain or, on linkers, in order; H or OH if unused. Where a SMILES comes first, the peptide text is derived from it. The star is where a group is joined. CO = O=C([*:1])[*:2]; NHPh = c1ccc(N*)cc1
target: human ether-à-go-go-related gene (hERG) potassium channel (human, UniProt Q12809); assay: primary screen, population patch clamp on CHO cells stably expressing hERG
Sequence (Q12809 whole entry, looked up): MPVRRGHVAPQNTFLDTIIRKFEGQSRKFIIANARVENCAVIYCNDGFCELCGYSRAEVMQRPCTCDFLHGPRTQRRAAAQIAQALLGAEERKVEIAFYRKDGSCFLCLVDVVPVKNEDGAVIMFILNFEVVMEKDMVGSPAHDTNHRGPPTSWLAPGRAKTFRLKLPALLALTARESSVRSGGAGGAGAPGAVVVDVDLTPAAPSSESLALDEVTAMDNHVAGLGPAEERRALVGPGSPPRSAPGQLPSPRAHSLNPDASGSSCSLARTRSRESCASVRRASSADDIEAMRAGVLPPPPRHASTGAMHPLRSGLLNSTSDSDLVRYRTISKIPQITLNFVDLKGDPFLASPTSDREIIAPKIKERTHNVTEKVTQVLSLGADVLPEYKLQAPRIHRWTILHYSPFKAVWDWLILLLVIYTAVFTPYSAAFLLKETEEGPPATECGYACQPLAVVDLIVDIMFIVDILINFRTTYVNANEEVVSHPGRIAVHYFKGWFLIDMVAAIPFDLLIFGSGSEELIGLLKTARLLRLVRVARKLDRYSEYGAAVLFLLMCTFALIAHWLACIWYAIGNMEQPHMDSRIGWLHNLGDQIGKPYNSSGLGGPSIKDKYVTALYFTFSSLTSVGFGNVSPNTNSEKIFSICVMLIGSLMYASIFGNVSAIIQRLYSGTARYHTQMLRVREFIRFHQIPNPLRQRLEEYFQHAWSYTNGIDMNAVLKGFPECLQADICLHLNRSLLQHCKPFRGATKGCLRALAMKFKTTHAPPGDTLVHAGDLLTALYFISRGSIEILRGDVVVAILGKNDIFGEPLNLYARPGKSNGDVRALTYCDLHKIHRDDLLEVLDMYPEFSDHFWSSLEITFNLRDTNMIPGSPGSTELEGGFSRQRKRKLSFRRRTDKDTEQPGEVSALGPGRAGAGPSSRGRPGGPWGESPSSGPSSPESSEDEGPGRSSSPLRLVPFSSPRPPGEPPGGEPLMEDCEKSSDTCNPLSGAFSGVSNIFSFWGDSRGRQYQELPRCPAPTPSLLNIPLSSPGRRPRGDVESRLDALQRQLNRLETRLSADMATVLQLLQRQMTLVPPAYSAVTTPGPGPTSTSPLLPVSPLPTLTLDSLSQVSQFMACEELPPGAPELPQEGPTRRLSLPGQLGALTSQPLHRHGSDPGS

| Structure (SMILES) | hERG current change (%, negative = inhibition) at 1uM |
| --- | --- |
| O=C(O)c1ccc(/C=N/Nc2cccc(C(F)(F)F)c2)cc1 | 14% |
| CSc1ccc(CCNC(=O)CCc2nnc3ccc(N4CCOCC4)nn23)cc1 | 0.904% |
| CN(C)S(=O)(=O)c1cccc(NC(=O)COC(=O)c2ccc([N+](=O)[O-])o2)c1 | 4.9% |
| Cc1c(C(=O)NCCCN2CCOCC2)sc2nc(-c3ccc(F)cc3)cn12 | -16.8% |
| CC(NC(=O)C1CCN(S(=O)(=O)c2cccc3nonc23)CC1)c1ccccc1 (stereo not shown) | 13.9% |
| CN(CC(=O)Nc1ccc(N2CCOCC2)cc1)CC(=O)Nc1ccc(C(F)(F)F)cc1 | 8.49% |
| COc1ccc(Br)cc1CNC(=O)CCc1nc(-c2ccc(C)cc2)no1 | 15.4% |
| O=C(NCCN1CCOCC1)c1cc(-c2ccccc2Cl)on1 | 14% |
| COc1ccc(NC(=O)C2CC3CCC2C3)c(OC)c1 (stereo not shown) | 6.79% |
| COc1ccc(C(=O)Oc2ccc(C(C)=O)cc2)c(OC)c1 | 11.5% |
| O=C(CCn1cnc2ccccc2c1=O)Nc1ccc(S(=O)(=O)N2CCCCC2)cc1 | 11.3% |
| O=C(N/N=C/c1ccc(Br)s1)c1ccc([N+](=O)[O-])cc1 | 1.03% |
| CCCNC1=C(N(C(C)=O)c2cccc(F)c2)C(=O)c2ccccc2C1=O | 10.2% |
| O=C(CN(Cc1ccc(F)cc1)C(=O)CNS(=O)(=O)c1ccccc1)NCc1ccco1 | 10.1% |
| COc1ccc(C(=O)Nc2nc3ccccc3s2)cc1OC | 7.56% |
| CC(C)C1Nc2ccc(C(=O)O)cc2C2C=CCC21 (stereo not shown) | 16.7% |
| [N-]=[N+]=NC[C@H](Cc1ccccc1)N1CCN(Cc2ccccc2)CCC1=O | 5.84% |
| COc1cc(NC(=O)c2sc3ncn(CC(=O)N4CCC(C)CC4)c(=O)c3c2C)cc(OC)c1OC | 12.5% |
| COC(=O)CNC(=O)CNC(=O)Nc1ccccc1 ({NHPh-CO}-Gly-Gly-OMe) | 4.39% |
| CCc1ccc(C(=O)NNC(=S)Nc2ccc(S(N)(=O)=O)cc2)s1 | 11.6% |

| Structure (SMILES) | hERG current change (%, negative = inhibition) at 1uM |
| --- | --- |
| COc1ccccc1NC(=O)CSc1nc(O)c(Cc2ccccc2)c(=O)[nH]1 | 12% |
| CC1(C)CC(=O)C=C(Nc2ccc(C(=O)O)cc2)C1 | 13.4% |
| CCCCc1ccc(NC(=O)CSCc2cc(=O)[nH][nH]2)cc1 | 1.42% |
| O=C1NN=C(c2ccccc2)CC1c1c[nH]c2ccccc12 (stereo not shown) | 3.34% |
| Cc1nnc(N2CCOCC2)c2nn(-c3ccccc3)c(C)c12 | -6.07% |
| Nc1c(C(=O)NCc2ccc3c(c2)OCO3)nnn1Cc1ccc(Br)cc1 | 2.1% |
| O=C(CCN1C(=O)c2ccccc2C1=O)Nc1ccc(-c2cn3ccsc3n2)cc1 | 17.9% |
| Nc1cc(N2CCCCC2)c(Cl)cc1[N+](=O)[O-] | 8.09% |
| CCOC(=O)c1nc(NCc2ccccc2C)c2ccccc2n1 | 14% |
| Cc1ccc(-n2ncc3c(=O)[nH]c(SC(C)C)nc32)cc1 | -9.17% |
| Cn1c(N)c(C(=O)COC(=O)CCC2CCCC2)c(=O)n(C)c1=O | -20.9% |
| COc1cccc(CNC(=O)c2ccc(NC(=O)CC3SC(N4CCCCC4)=NC3=O)cc2)c1 (stereo not shown) | 3.95% |
| O=C(O)c1cccc2c(/C=N/Nc3ccccn3)c[nH]c12 | 3.15% |
| COc1ccc(-n2c(Cc3cccn3C)nnc2SCC(=O)Nc2ccccc2C)cc1 | -4.46% |
| CCOc1ccccc1CNC(=O)CN1C(=O)CSc2ccc(S(=O)(=O)N3CCOCC3)cc21 | 14.1% |
| CCC(=O)NNc1nc2c(C)cc(C)cc2s1 | 15.8% |
| CCOC(=O)C(=O)Nc1nccs1 | 10.9% |
| CCN(CC)c1ccc(N)cc1S(=O)(=O)Nc1ccc(OC)cc1 | 6.69% |
| CC1CN(C(=O)CSc2nnc(-c3ccncc3)n2-c2ccccc2)CC(C)O1 (stereo not shown) | 11.2% |
| C/C(CCc1ccccc1)=N\NC(=O)COc1ccccc1C | 11.2% |

| Structure (SMILES) | hERG current change (%, negative = inhibition) at 1uM |
| --- | --- |
| C=CCSc1nc(C)cc2c1C(=O)OC2 | 10.4% |
| CCc1ccc(CNC(=O)CCn2ccc3cc(S(=O)(=O)N4CCCC4)ccc32)cc1 | 12.1% |
| O=C(Nc1nccs1)c1ccccc1N=Cc1ccccc1 | -3.37% |
| Cc1ccc2c(c1)N(C(=O)CCC(=O)N1CCC3(CC1)OCCO3)CC(C)O2 (stereo not shown) | 12.4% |
| O=C(Nc1cccc(C(F)(F)F)c1)NC1CCN(S(=O)(=O)c2ccc(F)cc2)CC1 | 9.52% |
| Cc1nn(-c2cc(N3CCCCC3)ccc2N)c(=O)c2ccccc12 | 1.2% |
| CC(C)(C)N1NC(=O)Nc2ccccc2C1=O | -5.08% |
| Cc1nc(C)c(-c2ccccc2)c(=O)[nH]1 | 12.8% |
| CCCn1cnc2cc(NCc3ccccc3O)ccc21 | 10.9% |
| CSc1ccccc1C(=O)NCc1cccnc1 | 10% |
| O=C(COC(=O)c1ccccn1)NCc1cccs1 | 0.372% |
| O=C(CN1C(=O)C2CC=CCC2C1=O)NC1=NCCS1 (stereo not shown) | 13% |
| Cc1sc(NC(=O)CSc2nnnn2C)c(C#N)c1C | 0.332% |
| CC(C)CN(CC(C)C)C(=O)CCCC(=O)N(CC(C)C)CC(C)C | 0.861% |
| COc1ccc(/C=C(\NC(=O)c2ccc(Cl)cc2)C(=O)NCC2CCCO2)cc1OC (stereo not shown) | 9.19% |
| CN(/N=C/C=C/c1ccccc1)C1=NS(=O)(=O)c2ccccc21 | 13.5% |
| N/C(Cc1ccc([N+](=O)[O-])cc1)=N\OC(=O)c1ccco1 | 4.4% |
| COC(=O)c1ccc(COc2cc(C)cc3oc(=O)c4c(c23)CCCC4)o1 | 17% |

Reference: publication PMC4336329 (PLoS ONE, 2015)
